This sample is rich in variants without activity.
B1: TPR 5TU (parent)
chain: GGAUCUUCUCGAUCUAACAAAAAAGACAAAUCUGCCACAAAGCUUGAGAGCAUCUUCGGAUGCAGAGGCGGCAGCCUUCGGUGGCGCGAUAGCGCCAACGUUCUCAACUAUGACACGCAAAACGCGUGCUCCGUUGAAUGGAGUUUAUCAUG

Variants of: B1
Assay: polymerase ribozyme fitness, log enrichment relative to wild type (log ratio); higher = more active; in vitro selection for triplet polymerase activity
In short: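 Mutant libraries of both subunits of a heterodimeric triplet polymerase ribozyme were PCR-built, transcribed, and selected once in triplicate, with frozen incubation at −7 °C and capture of gel-excised extended constructs on streptavidin beads before RT-PCR. Illumina sequencing of input and output libraries was filtered to genotypes with ≥10 input reads and ≥1 read per output. Fitness is the logarithm of genotype enrichment over wild-type enrichment, using inverse-variance-weighted replicate averages. The logarithm is base 2.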

| Variant | polymerase ribozyme fitness (log ratio) |
| --- | --- |
| GGAUCUUCUCGAUCUAACAAAAAAGACAAAUCUGCCACAAAGCUUGAGAGCAUCUUCGGAUGCAGAGGCGGCAGCCGUCGAUGGCGCGAUAGCGCCGAGGCUCUCAACUAUGACACGCAAAACGCGUGCUCCGUUGAAUGUGGUUUAUCAUG [U77G G81A A97G C99G U101C G141U A142G] | ≤ -4.2 |
| GGAUCUUCUCGAUCUAACAAAAAAGACAAAUCUGCCACAAAGCUUGAGAGCAUCUUCGGAUGCAGAGGCGGCAGCCGUCGGUGGCGCGAUAGAGCCAACGUUCUCAACUAUGACACGCAAAACGCGUGCUCCGUUGAAUGGAGUUUAUCAUG [U77G C93A] | ≤ -4.2 |
| GGAUCUUCUCGAUCUAACAAAAAAGACAAAUCUGCCACAAAGCUUGAGAGCAUCUUCGGAUGCAGAGGCGGCAGCCGUCGGUGUCGCGAUAGCGCCAACGUUCUCAACUAUGACACGCAAAACGCGUGCUCCGUUGAAUGGAGUUUAUCAUG [U77G G84U] | ≤ -4.2 |
| GGAUCUUCUCGAUCUAACAAAAAAGACAAAUCUGCCACAAAGCUUGAGAGCAUCUUCGGAUGCAGAGGCGGCAGCCUACGGUGGCGCGCUAGGGCCAACGUUCUCAACUAUGACAUGCAAAACGCGUGCUCCGUUGAAUGGAGUUUAUCAUG [U78A A89C C93G C116U] | ≤ -4.2 |
| GGAUCUUCUCGAUCUAACAAAAAAGACAAAUCUGCCACAAAGCUUGAGAGCAUCUUCGGAUGCAGAGGCGGCAGCCGUCGGUGGCGAGAUAGCGCCAACGUUCUCAACUAUGACACGCAAAACGCGUGCUCCGUUAAAUUGAGUUUAUCAUG [U77G C87A G136A G140U] | ≤ -4.2 |
| GGAUCUUCUCGAUCUAACAAAAAAGACAAAUCUGCCACAAAGCUUGAGAGCAUCUUCGGAUGCAGAGGCGGCAGCCGUCGGUGGCGCGAUAGCACCAACGUUCUCAACUAUGACACGCAAAACGCGUGCUCCGUUGAAUGGAGUUUACCAUG [U77G G94A U148C] | ≤ -4.2 |
| GGAUCUUCUCGAUCUAACAAAAAAGACAAAUCUGCCACAAAGCUUGAGAGCAUCUUCGGAUGCAGAGGCGGCAGCCUACGGUAGCGCGAUAGCGCCAACGUUCUCAACUAUGACACGCAAAACGCGUGCUCCGAUGAAUGGAGUUUAUCAGG [U78A G83A U134A U151G] | ≤ -4.2 |
| GGAUCUUCUCGAUCUAACAAAAAAGACAAAUCUGCCACAAAGCUUGAGAGCAUCUUCGGAUGCAGAGGCGGCAGCCGUCGGUGGCGCGAUAGCGCCAACGUUCUCAACUAUGACACUCAAAACGCGUGCUCCGUUGAAUGGAGUUUAUCAUG [U77G G117U] | ≤ -4.2 |
| GGAUCUUCUCGAUCUAACAAAAAAGACAAAUCUGCCACAAAGCUUGAGAGCAUCUUCGGAUGCAGAGGCGGCAGCCUACGGUUGCGCGAUUGCCCCAACGUUCUCAACUAUGACACGCAAAACGCGUGCUCCGUGCAAUGGAGUUUAUCAUG [U78A G83U A91U G94C U135G G136C] | ≤ -4.2 |
| GGAUCUUCUCGAUCUAACAAAAAAGACAAAUCUGCCACAAAGCUUGAGAGCAUCUUCGGAUGCAGAGGCGGCAGCCUACGGUCGCGCGAUAGCUCCAACGUUCUCAACUAUGACACUCAAAACUCGUGCUCCGUUGAAUGGAGUUUAUCAUG [U78A G83C G94U G117U G124U] | ≤ -4.2 |
| GGAUCUUCUCGAUCUAACAAAAAAGACAAAUCUGCCACAAAGCUUGAGAGCAUCUUCGGAUGCAGAGGCGGCAGCCAUCGGUGACGCGAUAGCGCCAACGUUCUCACCUAUGACACGCAAAACGCGUGCUCCGUUGAAUGGAGUUUAUCAUG [U77A G84A A107C] | ≤ -4.2 |
| GGAUCUUCUCGAUCUAACAAAAAAGACAAAUCUGCCACAAAGCUUGAGAGCAUCUUCGGAUGCAGAGGCGGCAGCCGUCGGUGGCUCGAUAGCGCCAACGUCCUCAACUAUGACACGCAAAACGCGUGCUCCGUUGAAUCGAGUUUAUCAUG [U77G G86U U102C G140C] | ≤ -4.2 |
| GGAUCUUCUCGAUCUAACAAAAAAGACAAAUCUGCCACAAAGCUUGAGAGCAUCUUCGGAUGCAGAGGCGGCAGCCCUCGGUGGCGCGAUAGUGCCAACGUUCUGAACUAUGACACGCAAAACGCGUGCUCCGUUGAAUGGAGUUUAUCAUG [U77C C93U C105G] | ≤ -4.2 |
| GGAUCUUCUCGAUCUAACAAAAAAGACAAAUCUGCCACAAAGCUUGAGAGCAUCUUCGGAUGCAGAGGCGGCAGCCCUCGGUGGCGUGAUAGCGCCAACGUUCUCAGCUUUGACACGCAAAACGCGUGCUCCGUUGAAUGCAGUUUAUAAUG [U77C C87U A107G A110U G141C C149A] | ≤ -4.2 |
| GGAUCUUCUCGAUCUAACAAAAAAGACAAAUCUGCCACAAAGCUUGAGAGCAUCUUCGGAUGCAGAGGCGGCAGCCGUCGGUGGCGCGAUAGAGCCAACGUUCUCAACUAUGACACGCAAAACGCGUGCUCCGUUGAAUGGAGUUUAUAAUG [U77G C93A C149A] | ≤ -4.2 |
| GGAUCUUCUCGAUCUAACAAAAAAGACAAAUCUGCCACAAAGCUUGAGAGCAUCUUCGGAUGCAGAGGCGGCAGCCGUCGGUGGCUCGAUAGGGCAAACGUUCUCAACUAUGACACGGAAAACGCGUGCUCCGUUGAAUGGAGUGUAUCAUG [U77G G86U C93G C96A C118G U145G] | ≤ -4.2 |
| GGAUCUUCUCGAUCUAACAAAAAAGACAAAUCUGCCACAAAGCUUGAGAGCAUCUUCGGAUGCAGAGGCGGCAGCCCUCGGUGUCGCGAUAGCGCCAACGUUCUCCACUAUGACACGCAAAACGCGUGCUCCGUUGAAUGGAGUUUAUCAUG [U77C G84U A106C] | ≤ -4.2 |
| GGAUCUUCUCGAUCUAACAAAAAAGACAAAUCUGCCACAAAGCUUGAGAGCAUCUUCGGAUGCAGAGGCGGCAGCCCUCGGUGGCGCGAUAGCGCAAACGUUCUCAACUAUGACACGCAAAACGCGUGCUCCGUUGAAUGGAGUUUAUCAUG [U77C C96A] | -2.82 |
| GGAUCUUCUCGAUCUAACAAAAAAGACAAAUCUGCCACAAAGCUUGAGAGCAUCUUCGGAUGCAGAGGCGGCAGCCGUCGGUGGCGGGAUAGCGCCAACGUUCUCAACUAUGACACGCAAAACGCGUGCUCCGUUGAAUGGAGUUUAUCAUG [U77G C87G] | ≤ -4.2 |
